According to patent US20250032450A1, “[…] INHALABLE FORMULATIONS” (Cybin UK Ltd., priority 2021, published 2025):
Marks after values point to notes of the source that are not given here.

Assays:
[1] = pH-stability of SPL026 (DMT fumarate) 2.5 mg/mL in 40 mM Britton-Robinson buffer (pH, HPLC assay, related substances)
human brain activity = conditions: human volunteers; cited from earlier work

`CN(C)CCc1c[nH]c2ccccc12.O=C(O)/C=C/C(=O)O` [SPL026, N,N-dimethyltryptamine (DMT) fumarate salt] gave a pH ([1]; nominal pH 6.5 sparged N2, Day 7: 7 days storage at 40° C.) of 6.18, a pH ([1]; nominal pH 6.5 sparged N2, Day 17: 10 days at 40° C. followed by 7 days at 50° C.) of 6.09 and a pH ([1]; nominal pH 6.5 sparged N2, Initial) of 6.12. The pH ([1]; nominal pH 7.0 UV Light, pH on completion of testing) was 6.07^a, the pH ([1]; nominal pH 7.5, Day 7: 7 days storage at 40° C.) was 6.58 and the pH ([1]; nominal pH 7.5, Day 17: 10 days at 40° C. followed by 7 days at 50° C.) was 6.59. The pH ([1]; nominal pH 7.5, Initial) was 6.60, the pH ([1]; nominal pH 8.0, Day 7: 7 days storage at 40° C.) was 6.86 and the pH ([1]; nominal pH 8.0, Day 17: 10 days at 40° C. followed by 7 days at 50° C.) was 6.84. For the same compound, the pH ([1]; nominal pH 8.0, Initial) was 6.87, the pH ([1]; nominal pH 9.0, Initial) was 7.71 and the “alpha power (EEG) relative to placebo” value (human brain activity) was “suppressed alpha power”. The “delta and theta power (EEG) relative to placebo” value (human brain activity) was “normalized/increased delta and theta power”.
